Consider 84 variants from the RNAGym collection of RNA variant scans (doi:10.1073/pnas.2313332121).

B1: TPR 5TU (parent)
chain: GGAUCUUCUCGAUCUAACAAAAAAGACAAAUCUGCCACAAAGCUUGAGAGCAUCUUCGGAUGCAGAGGCGGCAGCCUUCGGUGGCGCGAUAGCGCCAACGUUCUCAACUAUGACACGCAAAACGCGUGCUCCGUUGAAUGGAGUUUAUCAUG

Variants at the floor of the assay are shown more often than the library holds them. Bounds are passed on as bounds.

The data set covers variants of B1. Description: polymerase ribozyme fitness, log enrichment relative to wild type (log ratio); higher = more active; in vitro selection for triplet polymerase activity. The essentials:
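The heterodimeric triplet polymerase ribozyme's subunits were each mutagenized into PCR-built libraries and transcribed. Every library was selected once, in triplicate, by annealing with a biotinylated primer, the partner subunit and triplets, incubating frozen at −7 °C, gel-excising extended constructs, capturing on streptavidin beads and running RT-PCR. Input and output libraries were Illumina-sequenced, with genotypes kept only at ≥10 input reads and ≥1 read per output. Fitness, from inverse-variance-weighted replicate averages, is the base-2 logarithm of genotype enrichment over wild-type enrichment.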
Turning to A19C C54A C72U C85G C96U A150U, the “polymerase ribozyme fitness (log ratio)” value is ≤ -4.2.
Turning to A19C A47C A97U C99G U109G, the “polymerase ribozyme fitness (log ratio)” value was ≤ -4.2.
Take A19C G70A C76G C99G: the “polymerase ribozyme fitness (log ratio)” value was ≤ -4.2.
Take A19C A23C U53A C69U C75U G80A: the “polymerase ribozyme fitness (log ratio)” value is ≤ -4.2.
In the case of C18G A24U A28U A52C C85U C93A A122U G124C U134C G140C it was ≤ -4.2; in that of C18U C36A G50A C75U, ≤ -4.2; in that of C18G A20C C32A A40C U53A A91G, ≤ -4.2.
With C18G A23U G62C A97U U144C, the “polymerase ribozyme fitness (log ratio)” value is ≤ -4.2.
With C18A A23U G58A A121G C132G the figure was ≤ -4.2; with A19C C27A C125U U148G, ≤ -4.2; with C18U A52G A89C C96G U109A A115U, ≤ -4.2.
On to C18A G34U G71U C79G, for which the “polymerase ribozyme fitness (log ratio)” value was ≤ -4.2.
In the case of C18U A22C U77G G83U G133U it was ≤ -4.2; in that of A19C A21U C27G A52G G70A C85A C87U C103U C108A A138U, ≤ -4.2.
With C18U A26G G58A C87A A97U G133A the figure was ≤ -4.2; with C18U C43G U56A C79U G83U C95A U148G, ≤ -4.2; with A19C A24G C36U C57A U111G A121G, ≤ -4.2.
In the case of A19C A20C A40G U55C G71U G84A A138U U139A it was ≤ -4.2.
For the variant A19C A28C U135G, the “polymerase ribozyme fitness (log ratio)” value is ≤ -4.2.
In the case of C18G C38A G81A U102G U109C U144C it was ≤ -4.2; in that of A19C A23C A60G C72G C116U U127G G143U, ≤ -4.2; in that of A19C A40G C75G G88C, ≤ -4.2.
In the case of C18U A24C A137G it was ≤ -4.2; in that of A19C A30U A52G A107U C116G C118G A142C A150U, ≤ -4.2; in that of A19C G59A U144C, 1.14.
A19C A21C A26C U44A C57A U61A G68A G86A C118U: the “polymerase ribozyme fitness (log ratio)” value was ≤ -4.2.
With C18U C108U the figure was -3.57.
With C18U A24C C35U C79U C103G A119G, the “polymerase ribozyme fitness (log ratio)” value was ≤ -4.2.
For the variant A19C A41C G70U G84A U101G G126C U135C, the “polymerase ribozyme fitness (log ratio)” value was ≤ -4.2.
With C18G C51A U53A U55G A119U G126U U144A, the “polymerase ribozyme fitness (log ratio)” value is ≤ -4.2.
In the case of A19C A23G U31A C38U C51G C85U it was ≤ -4.2; in that of C18A C27G C38U C93U A107C, ≤ -4.2; in that of C18U U31G U53A G81C G83A C105G U135G, ≤ -4.2.
In the case of C18U G86U it was -2.18; in that of C18U C54G G59A C93A G136U, ≤ -4.2; in that of C18U U53A G74C A107U U135C G140C, ≤ -4.2.
In the case of C18U G58C A137U, the “polymerase ribozyme fitness (log ratio)” value was ≤ -4.2.
For the variant C18A A23U A24C A37U G42C C76G C93G G112U A142C, the “polymerase ribozyme fitness (log ratio)” value is ≤ -4.2.
In the case of A19C A41U G46C G67U U78G G84U C108U, the “polymerase ribozyme fitness (log ratio)” value was ≤ -4.2.
For C18U C43U G50U U61A G80C, the “polymerase ribozyme fitness (log ratio)” value was ≤ -4.2.
Take A19C A52U C87G U90A C96G C103A: the “polymerase ribozyme fitness (log ratio)” value is ≤ -4.2.
In the case of C18G A21C A49C C93A, the “polymerase ribozyme fitness (log ratio)” value was ≤ -4.2.
Consider C18U U55A U56A C63G A66C C96G C132U, for which the “polymerase ribozyme fitness (log ratio)” value was ≤ -4.2.
On to A19C C36U G59U A60G C93U U104G, for which the “polymerase ribozyme fitness (log ratio)” value is -3.23.
In the case of C18G A24G A29C C75U C76A C87G, the “polymerase ribozyme fitness (log ratio)” value is ≤ -4.2.
Take C18A A29C C69U G80A C93A: the “polymerase ribozyme fitness (log ratio)” value was ≤ -4.2.
With A19C G58C C87A, the “polymerase ribozyme fitness (log ratio)” value was ≤ -4.2.
For A19C G62A G80A U101G C103G A106U U127C U148C, the “polymerase ribozyme fitness (log ratio)” value is ≤ -4.2.
Turning to C18U C87U C99U A119G C125G U135G, the “polymerase ribozyme fitness (log ratio)” value is ≤ -4.2.
C18U A41C C72U C93G U104G: the “polymerase ribozyme fitness (log ratio)” value was ≤ -4.2.
In the case of A19C A29U A49G U55A A66G C76U C79U G83U U90G A110U G143C it was ≤ -4.2.
As to A19C A29C U33G C87G C108U U135A U148A, the “polymerase ribozyme fitness (log ratio)” value was ≤ -4.2.
As for C18U G58C C85U C87U, the “polymerase ribozyme fitness (log ratio)” value is -1.92.
Take A19C A24U A26C G48C U61G G68U U77G G141A C149G: the “polymerase ribozyme fitness (log ratio)” value was ≤ -4.2.
For the variant C18U G48U U55A A91U C131G G141A, the “polymerase ribozyme fitness (log ratio)” value is ≤ -4.2.
C18U A37C G74C G81C: the “polymerase ribozyme fitness (log ratio)” value was ≤ -4.2.
As for C18G C85A G88U C123G U148A, the “polymerase ribozyme fitness (log ratio)” value is ≤ -4.2.
Consider C18U A60G C76U C103G G112U, for which the “polymerase ribozyme fitness (log ratio)” value was ≤ -4.2.
In the case of C18G A26U C35U U78A C99G U135C A147C it was ≤ -4.2.
C18U G59C U104G A137C: the “polymerase ribozyme fitness (log ratio)” value was ≤ -4.2.
Regarding C18U A28C C87G G124U U139G U146G, the “polymerase ribozyme fitness (log ratio)” value is ≤ -4.2.
Regarding A19C A40U G50A U77C C93U U104G, the “polymerase ribozyme fitness (log ratio)” value was ≤ -4.2.
As to A19C A29C C99G, the “polymerase ribozyme fitness (log ratio)” value is ≤ -4.2.
In the case of A19C A29U U56A G59A A73G C76A U78A G83U G141C, the “polymerase ribozyme fitness (log ratio)” value is ≤ -4.2.
Take C18U C72G U77G G84A C114G: the “polymerase ribozyme fitness (log ratio)” value was ≤ -4.2.
Regarding A19C A49C G50C G58A G74U C85U C114A C116U, the “polymerase ribozyme fitness (log ratio)” value was ≤ -4.2.
With A19C A23G A24G U31A C35A A40U G48A C79A G140A the figure was ≤ -4.2; with C18U C87U G94C C123A G141A, ≤ -4.2.
For A19C A22G A29U U44C, the “polymerase ribozyme fitness (log ratio)” value is ≤ -4.2.
For C18U G34A A66G A97C C103U C123G, the “polymerase ribozyme fitness (log ratio)” value was ≤ -4.2.
In the case of C18G A30U U44A C76U G84A C85G it was ≤ -4.2; in that of A19C C32U A49G G59U, ≤ -4.2.
As for C18U G25U G48A G83U, the “polymerase ribozyme fitness (log ratio)” value is ≤ -4.2.
On to C18U A47C C79G G88A A91C A121U U148G, for which the “polymerase ribozyme fitness (log ratio)” value was ≤ -4.2.
As for A19C A21U C43A C85U, the “polymerase ribozyme fitness (log ratio)” value is ≤ -4.2.
As to C18U C93U, the “polymerase ribozyme fitness (log ratio)” value was -1.73.
As to C18A A60C G67U C72U G83U A98C, the “polymerase ribozyme fitness (log ratio)” value is ≤ -4.2.
Consider A19C G80A C85G, for which the “polymerase ribozyme fitness (log ratio)” value is -0.89.
On to C18G A20C A28C G42C G81U G94U, for which the “polymerase ribozyme fitness (log ratio)” value is ≤ -4.2.
A19C C125U: the “polymerase ribozyme fitness (log ratio)” value stood at 0.16.
C18U A19U A24G G74U C79U: the “polymerase ribozyme fitness (log ratio)” value was ≤ -4.2.
On to C18A A21C A29C A91G C99A C125U G143C A150C, for which the “polymerase ribozyme fitness (log ratio)” value was ≤ -4.2.
In the case of C18G A19U G62C C85U C116A it was -1.81; in that of A19C G34A C95A C96G A97G G100U C131A, ≤ -4.2.
